Assay results as given in PubChem BioAssay AID1963576 (National Center for Advancing Translational Sciences (NCATS), 2024).
About 60 (0.1%) of roughly 46,000 compounds were called active. Another 3% or so got no clear call; they are omitted. Calls come from the whole dose curve; as a rule, active = well fitted inhibition curve with a large enough effect; inconclusive = small, poorly fitted or top-dose-only effect; inactive = no such curve, though single readings can be large or run the other way. The list shows a part of the results.

experiment: Primary qHTS assay for Inhibitors of ovarian cancer metastasis using an organotypic tumor microenvironment (TME) model.; note: nearly all actives have a fitted effect of over 65% in size;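 for Potency: count of GFP cancer cells still attached after washing and fixation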;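 for activity change, negative = inhibition: plate controls were DMSO wells for no effect and tomatine positive control wells for full effect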; details: SKOV3ip1-GFP adhesion/invasion on 3D omental model, fluorescence; series mostly up to 45.8 µM; activity change, negative = inhibition: at the top concentration
Outline: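 A 3D layer of primary human omental fibroblasts, mesothelial cells, fibronectin and collagen I, grown 48 hr, received SKOV3ip1-GFP cells in serum-free medium plus compounds at 0.36-46 umol/L. After 2 hr RT and 16 hr 37 C, fixed adherent GFP cells were counted; normalized to DMSO and tomatine.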
Potency is the fitted concentration of half-maximal effect.

| SMILES | activity change, negative = inhibition | outcome | Potency |
| --- | --- | --- | --- |
| O=S(=O)(Nc1cccc(-c2ccc(N3CCCC3)nn2)c1)c1cc(F)ccc1F | inactive: 2.35% | – | – |
| Cc1cccc(OCCSc2nc3ccccc3n2CC(=O)N2CCOCC2)c1C | inactive: 7.32% | – | – |
| CCN1C(=O)c2ccccc2S(=O)c2ccc(C(=O)NCc3ccccc3OC)cc21 (centres undefined) | – | inactive | – |
| CCOC(=O)N1CCN(Cc2nc3cc(NC(=O)c4ccc([N+](=O)[O-])cc4)ccc3n2C(C)C)CC1 | inactive: -5.58% | – | – |
| CC[C@@H]([C@H](C)O)n1ncn(-c2ccc(N3CCN(c4ccc(OCC5CO[C@@](Cn6cncn6)(c6ccc(F)cc6F)C5)cc4)CC3)cc2)c1=O (some centres undefined) | inactive: 3.73% | – | – |
| CCOc1ccc(C2C(C(N)=O)=C(C)Nc3nc(-c4cccc(Cl)c4)nn32)cc1OC (centres undefined) | inactive: -2.3% | – | – |
| Cc1ccc(NC(=O)C2CCCN(S(=O)(=O)c3c(C)nn(C)c3C)C2)c(C)c1 (centres undefined) | inactive: -3.95% | – | – |
| COc1cc(/C=C/c2nc3cc(Cl)ccc3c(=O)n2-c2ccc(C)cc2C)cc(OC)c1OC | inactive: -1.4% | – | – |
| CSc1ccc(NC(=O)Cn2nnnc2-c2ccccc2F)cc1 | inactive: -8.04% | – | – |
| COc1cccc(CNC(=O)Cn2c(SCC(=O)Nc3ccc(C)c(C)c3)nc3ccccc32)c1 | inactive: -8.04% | – | – |
| CCCCCOc1ccc(NC(=O)Cn2c(-c3cncs3)nc3ccccc32)cc1 | inactive: -69.4% | – | – |
| O=C(O)c1c2c(nc3ccc(S(=O)(=O)N4CCC(C(=O)NCc5ccc(Cl)cc5)CC4)cc13)CCCC2 | – | inactive | – |
| CCOC(=O)c1c(C)oc2nc(C)nc(N3CCN(c4cccc(C)c4C)CC3)c12 | inactive: 4.06% | – | – |
| Cc1cc(Nc2cccc(C(F)(F)F)c2)nc2ccc(NC(=O)c3cccnc3)cc12 | – | – | active: 11.2 µM |
| CCOC(=O)c1c(C)n(S(=O)(=O)c2ccc(C)cc2)c2ccc(NS(=O)(=O)c3ccc(C)cc3)cc12 | inactive: -1.15% | – | – |
| CC(NC(=O)c1cc(-c2ccc(Cl)cc2)on1)c1ccccc1 (centres undefined) | inactive: -2.56% | – | – |
| CCc1cccc(NC(=O)c2cccc3c2C(=O)N(C2CCCCC2)C3)c1 | inactive: 23.1% | – | – |
| O=C(NCC(c1cccnc1)N1CCc2ccccc21)C(=O)Nc1ccccc1F (centres undefined) | inactive: -5% | – | – |
| COc1nnc(-c2ccc(N3CCCCC3)c(NC(=O)c3ccccc3)c2)c2ccccc12 | – | inactive | – |
| COc1ccc(Nc2ncnc3c2nc2n3CCCC2)cc1Cl | – | inactive | – |
| Cc1ccccc1C(=O)Nc1ccc2oc(-c3ccc(Cl)c(Cl)c3)nc2c1 | inactive: 32.4% | – | – |
| Cc1ccccc1Nc1nnc(-c2ccc(C)c(S(=O)(=O)N3CCCCC3)c2)c2ccccc12 | inactive: 40.3% | – | – |
| COc1ccc(CNC(=O)c2ccc3c(c2)N(Cc2ccccc2)CCS3)cc1 | inactive: 2.41% | – | – |
| CCOC(=O)c1nnn(CC(=O)NC(=O)Nc2ccc(F)cc2)c1C(=O)OCC | inactive: 4.5% | – | – |

| SMILES | activity change, negative = inhibition | outcome | Potency |
| --- | --- | --- | --- |
| CN(C)c1ccccc1CN1CCCN(Cc2ccccc2N(C)C)C1c1ccncc1 | inactive: 11.8% | – | – |
| Cc1nc2nc(C(F)(F)F)[nH]n2c(=O)c1Cc1ccccc1 | inactive: 14.4% | – | – |
| Cc1oc2ncn(CC(C)C)c(=O)c2c1C(=O)N(Cc1ccccc1)C(C)C | inactive: -8.69% | – | – |
| O=C(NCC(c1ccc2c(c1)OCO2)N1CCN(c2ccccc2)CC1)c1ccccc1 (centres undefined) | inactive: 11.6% | – | – |
| CC1Cn2cc(C(=O)Nc3ccccc3C(F)(F)F)c(=O)c3c(Cl)ccc(c32)O1 (centres undefined) | – | inactive | – |
| CC(C)Oc1ccc(C(=O)Nc2nc3c(s2)CC(C(C)(C)C)CC3)cc1 (centres undefined) | inactive: -5.21% | – | – |
| Cc1ccc(O)c(NC(=O)CCSc2nc(-c3ccco3)cc(C(F)(F)F)n2)c1 | inactive: -6.83% | – | – |
| CCOc1ccccc1NC(=O)c1c(NC(=O)c2ccncc2)sc2c1CCC(C(C)(C)C)C2 (centres undefined) | inactive: 22.4% | – | – |
| COc1ccc(Cl)cc1NS(=O)(=O)c1c(C)[nH]c(=O)[nH]c1=O | inactive: -0.0587% | – | – |
| O=C(CN1C(=O)C2(SCC(=O)N2c2ccc(Cl)cc2)c2ccccc21)NCCc1ccccc1 (centres undefined) | inactive: 22.8% | – | – |
| Cc1ccc(Cn2c(C)c3cnn(CC(=O)N4CCN(c5ccc(F)cc5)CC4)c(=O)c3c2C)cc1 | – | inactive | – |
| O=c1c2ccccc2nc2n1CCc1c-2[nH]c2ccccc12 | inactive: -1.3% | – | – |
| O=C(/C=C/c1ccccc1)N1CCN(Cc2cc(=O)n3nc(-c4ccccc4Cl)sc3n2)CC1 | inactive: 4.46% | – | – |
| COc1cc(OC)c(NC(=O)c2cn(C)c(=O)c3cc(OC)c(OC)cc23)cc1Cl | inactive: -1.18% | – | – |
| Cc1ccc(C(=O)c2oc3ccccc3c2NC(=O)COc2ccc(C(C)(C)C)cc2)cc1 | – | inactive | – |
| Cc1ccc(COc2cccc3cc(-c4noc(-c5ccc(C)cc5)n4)c(=O)oc23)cc1 | inactive: 10.2% | – | – |
| Cc1ccc(NC(=O)Cn2cnc3c(oc4ccccc43)c2=O)cc1 | inactive: 21% | – | – |
| CC(C)C(=O)c1cc2c(cc1NC(=O)c1ccccc1F)OCCO2 | inactive: 10.8% | – | – |
| COc1ccc(C(=O)NCc2nnc(SCC(=O)Nc3ccc(F)cc3)n2-c2ccccc2)cc1 | inactive: 15.2% | – | – |
| COC(=O)c1ccc(NC(=O)CSc2nc3c(c(=O)n(C)c(=O)n3C)n2Cc2ccccc2)cc1 | inactive: 9.19% | – | – |
| Cc1ccc(S(=O)(=O)Nc2c(C)nc3nc(C)[nH]n3c2=O)c(C)c1 | inactive: 6.03% | – | – |
| CN(C)c1ccc(NC(=O)CSC2=Nc3ccccc3C3=NC(CC(=O)NCc4ccc5c(c4)OCO5)C(=O)N23)cc1 (centres undefined) | inactive: 4.36% | – | – |
| Oc1ccc(NCc2ccccc2OCc2ccccc2Cl)cc1 | inactive: -4.75% | – | – |
| COc1ccc(Cl)cc1NC(=O)c1c(NCc2cccs2)sc2c1CCCC2 | – | inactive | – |

| SMILES | activity change, negative = inhibition | outcome | Potency |
| --- | --- | --- | --- |
| Cc1cccc(-n2ncc(C(=O)Nc3ccc4c(c3)OCO4)c2C2CCN(C(=O)OC(C)(C)C)CC2)c1 | inactive: 9.29% | – | – |
| Cc1ccccc1-c1noc(-c2cc(C(C)C)[nH]n2)n1 | inactive: -8.91% | – | – |
| COc1ccccc1Cc1nc2ccccc2nc1SCC(=O)N1CCCc2ccccc21 | inactive: 5.64% | – | – |
| C[C@]12C=CC(=O)N[C@@H]1CC[C@H]1[C@H]3CC[C@@H](C(=O)Nc4cc(C(F)(F)F)ccc4C(F)(F)F)[C@@]3(C)CC[C@@H]12 | inactive: -6.18% | – | – |
| Cc1cc(Nc2ccc(Cl)cc2)n2cnnc2n1 | inactive: -0.13% | – | – |
| CC(=O)N1CCc2cc(S(=O)(=O)CCC(=O)N3CCN(c4ccccc4F)CC3)ccc21 | inactive: 4.75% | – | – |
| COc1ccc(-c2nnc(SCC(=O)c3ccc([N+](=O)[O-])cc3)o2)cc1OC | – | inactive | – |
| CCOc1ccccc1N1CC(c2nc3ccccc3n2CCOc2ccccc2OC)CC1=O (centres undefined) | inactive: -6.85% | – | – |
| Cc1cccn2c(=O)c3cc(C(=O)NC(C)c4ccccc4)c(=N)n(CCOCCO)c3nc12 (centres undefined) | – | inactive | – |
| COc1ccc2c(c1)Cc1sc(NC(=O)c3ccc(Cl)cc3)nc1-2 | inactive: -3.27% | – | – |
| Cc1ccc(-n2c(SCc3ccccc3C)nc3[nH]ncc3c2=O)cc1C | inactive: -13.9% | – | – |
| N#C/C(=C\c1ccc(-c2ccc(Cl)c(C(=O)O)c2)o1)c1nc2ccccc2[nH]1 | inactive: 2.4% | – | – |
| O=C(NCc1ccccc1Cl)C(=O)NCC(c1cccs1)S(=O)(=O)c1ccccc1 (centres undefined) | inactive: -5.85% | – | – |
| O=C(NCc1cccnc1)C1CCN(Cc2cc3ccccc3n2Cc2ccccc2)CC1 | inactive: 5.29% | – | – |
| CCOc1ccc(N(C(=O)c2ccc(OC)cc2)S(=O)(=O)c2ccc3c(c2)n(C)c(=O)n3C)cc1 | inactive: -0.165% | – | – |
| Cc1ccccc1-c1noc(-c2ccc(N3CCCC3)c([N+](=O)[O-])c2)n1 | inactive: 10.6% | – | – |
| CC(=O)N1CCCc2ccc(NC(=O)c3ccc(C(F)(F)F)cc3)cc21 | inactive: -8.98% | – | – |
| CCOC(=O)c1cc(OC(=O)c2cccc(F)c2)n(-c2ccccc2)n1 | – | inactive | – |
| CC(C)c1ccc(-c2noc(SCC(=O)N(C)c3ccc(F)cc3)n2)cc1 | – | inactive | – |
| COC(=O)c1cc2oc(C)cc2n1Cc1ccc(C)cc1 | inactive: -2.93% | – | – |
| Cc1cc(C)cc(NC(=O)CSc2nnc(CNC(=O)c3c(F)cccc3Cl)o2)c1 | inactive: 4.33% | – | – |
| CCN(CC)S(=O)(=O)c1ccc2c(c1)N(CC(=O)Nc1c(C)cc(C)cc1C)C(=O)CS2 | inactive: 20.4% | – | – |
| CCC(=O)C1=C(c2ccc(F)cc2)N(C(=O)CC)n2c(nnc2C2CCCCC2)S1 | inactive: -18.5% | – | – |
| CCC(=O)OC1=CN(Cc2ccccc2)S(=O)(=O)c2ccccc21 | inactive: 1.32% | – | – |

| SMILES | activity change, negative = inhibition | outcome | Potency |
| --- | --- | --- | --- |
| CC(C)c1ccc(NC(=O)CN2C=NS(=O)(=O)c3ccccc32)cc1 | inactive: -8.2% | – | – |
| N#C/C(=C\c1c(Oc2ccc(F)cc2)nc2ccccn2c1=O)c1nc2ccccc2s1 | inactive: 2.08% | – | – |
| Cc1cccc(N2CCN(C(=O)CN3C(=O)COc4ccc(S(=O)(=O)N5CCCC5)cc43)CC2)c1C | – | inactive | – |
| CCOc1ccc(CCNC(=O)Cn2nc(CC)n3c(cc4c(OC)cccc43)c2=O)cc1OCC | inactive: -20.2% | – | – |
| Cc1oc(-c2cccc(Br)c2)nc1CSc1nc2ncccc2[nH]1 | – | inactive | – |
| CCc1ccc(CNC(=O)C2CCN(C(=O)c3ccc(-n4ccc5ccccc54)s3)CC2)cc1 | inactive: -10.8% | – | – |
| O=C1CC(c2ccc(F)cc2)c2c(n3c(nc4ccccc43)[nH]c2=O)N1 (centres undefined) | inactive: -4.25% | – | – |
| CCCOc1ccc(C(=O)Nc2sc3c(c2C(=O)OCC)CCCCC3)cc1 | inactive: 7.57% | – | – |
| Cc1oc(-c2cccc(Br)c2)nc1CN1CCC(C(=O)NCc2ccccc2)CC1 | inactive: -0.279% | – | – |
| Cc1ccc(NC(=O)c2ccc(F)c(S(=O)(=O)NCCc3ccccc3)c2)cc1F | – | inactive | – |
| Cc1nc(-c2ccccc2)sc1-c1ccc(SCC(=O)Nc2ccccc2)nn1 | inactive: -6.7% | – | – |
| O=C(Cn1c2ncccc2c(=O)n1-c1ccccc1)NCc1ccccc1 | – | inactive | – |
| O=C(CS(=O)(=O)c1nc(-c2ccc(Cl)cc2)cn1-c1ccccc1)Nc1cccc(Cl)c1 | inactive: -20.4% | – | – |
| O=C(NCc1ccccc1Cl)c1cc(-c2ccccc2)n[nH]1 | inactive: -7.07% | – | – |
| COCCn1c(CCC(=O)Nc2ccc(OC)c(OC)c2)nc2cccnc21 | inactive: 1.81% | – | – |
| CCc1ccc(NC(=O)N2CCN(c3nnc(C)c4c(C)n(-c5ccc(Cl)cc5)nc34)CC2)cc1 | inactive: -1.48% | – | – |
| COc1cccc(NC(=O)c2csc3c2CCCCC3)c1 | – | inactive | – |
| Cc1cc(C)cc(NC(=O)CSc2nccn2C2CCCC2)c1 | inactive: 2.17% | – | – |
| COc1cccc(C2C(C(N)=O)=C(C)Nc3nc(CCCO)nn32)c1 (centres undefined) | inactive: 8.39% | – | – |
| COc1cccc(CNC(=O)Cc2c(C)c3cc4c(C)coc4cc3oc2=O)c1 | – | inactive | – |
| COc1ccc(CN(C(=O)Nc2cc(C)ccc2C)C2CCN(C(C)=O)CC2)cc1 | inactive: 2.19% | – | – |
| CCOc1cccc(CC(=O)NCc2ccc3c(c2)CCN3C(=O)c2cccc(C)c2)c1OCC | inactive: -8% | – | – |
